# In publication PMC4336329 (PLoS ONE, 2015):
# In all, about 310,000 compounds went through this assay and about 14,000 (4.5%) showed an effect of 50% or more. The effect is printed as a negative number. This is one part of the list.
# Target: human ether-à-go-go-related gene (hERG) potassium channel (human, UniProt Q12809)
# Assay: primary screen, population patch clamp on CHO cells stably expressing hERG
# 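Further: peak tail current of the secondary pulse compared with the same well before compound.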
# human ether-à-go-go-related gene (hERG) potassium channel, sequence (Q12809 whole entry, looked up): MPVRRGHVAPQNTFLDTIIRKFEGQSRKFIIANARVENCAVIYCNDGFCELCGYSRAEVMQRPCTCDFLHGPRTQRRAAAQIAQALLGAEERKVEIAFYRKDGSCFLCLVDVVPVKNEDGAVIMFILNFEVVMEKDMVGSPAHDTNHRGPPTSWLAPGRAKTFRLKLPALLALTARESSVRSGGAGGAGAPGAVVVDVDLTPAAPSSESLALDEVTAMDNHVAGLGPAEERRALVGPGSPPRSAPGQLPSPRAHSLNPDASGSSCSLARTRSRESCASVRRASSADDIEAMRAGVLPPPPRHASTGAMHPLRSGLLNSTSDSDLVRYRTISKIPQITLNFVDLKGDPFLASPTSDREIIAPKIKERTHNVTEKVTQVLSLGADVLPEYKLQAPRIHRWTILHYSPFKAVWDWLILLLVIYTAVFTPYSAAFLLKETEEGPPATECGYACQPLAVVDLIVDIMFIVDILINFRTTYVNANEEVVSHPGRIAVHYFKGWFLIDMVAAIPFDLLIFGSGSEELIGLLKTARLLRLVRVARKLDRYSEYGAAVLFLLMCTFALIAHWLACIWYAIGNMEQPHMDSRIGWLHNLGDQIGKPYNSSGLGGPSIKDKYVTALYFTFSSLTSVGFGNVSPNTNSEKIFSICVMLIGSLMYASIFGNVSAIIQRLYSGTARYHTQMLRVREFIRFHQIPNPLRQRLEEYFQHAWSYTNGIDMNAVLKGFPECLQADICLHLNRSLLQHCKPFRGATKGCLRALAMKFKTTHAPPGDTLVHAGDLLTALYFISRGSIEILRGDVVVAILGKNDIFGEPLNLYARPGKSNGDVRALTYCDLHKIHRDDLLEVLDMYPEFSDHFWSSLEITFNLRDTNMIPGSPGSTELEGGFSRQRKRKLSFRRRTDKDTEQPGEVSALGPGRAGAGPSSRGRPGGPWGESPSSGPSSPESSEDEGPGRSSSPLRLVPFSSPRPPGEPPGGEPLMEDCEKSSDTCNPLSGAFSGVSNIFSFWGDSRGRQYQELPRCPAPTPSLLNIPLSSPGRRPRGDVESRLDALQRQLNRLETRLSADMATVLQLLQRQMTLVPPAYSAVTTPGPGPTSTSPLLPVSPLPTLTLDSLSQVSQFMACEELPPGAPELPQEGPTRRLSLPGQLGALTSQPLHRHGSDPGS
row,Structure (SMILES),"hERG current change (%, negative = inhibition) at 10uM [%]"
1,O=C(CCC(=O)Nc1ccc(F)cc1)N/N=C/c1cccs1,3.36
2,COc1cc(NS(=O)(=O)c2ccc(NC(=S)NC(=O)c3ccco3)cc2)ncn1,20.4
3,COC(=O)CON1C(=O)c2ccccc2C1=O,-5.6
4,CN(Cc1ccc2ccccc2c1)C(=O)c1ccc(C(F)(F)F)cc1,26.1
5,Cc1[nH]c(C)c(S(=O)(=O)NCc2ccccc2Cl)c1C(=O)N1CCCC1,-5.27
6,CCOC(=O)[C@H](CCc1ccccc1)N[C@H]1CCc2ccccc2N(CC(=O)O)C1=O.Cl,6.32
7,O=C(Nc1ccc(-n2nncc2-c2ccco2)cc1)c1ccc(F)cc1,-1.17
8,CCn1c(C)cc2c(c1=O)C(c1ccc3c(c1)OCO3)C(C#N)=C(N)O2 (stereo not drawn),-2.27
9,O=C(NCCc1nc2ccccc2[nH]1)c1ccc(F)cc1,-20
10,Clc1ccc2nc(-c3cccc(SC4CCCCC4)c3)c(NCc3ccccc3)n2c1.O=C(O)C(F)(F)F,2.82
11,CCC(C(=O)c1ccc(O)cc1)c1ccccc1 (stereo not drawn),-5.56
12,[Br-].c1ccc(Nc2scc(-c3ccccc3)[n+]2Cc2ccco2)cc1,9.79
13,O=C(Nc1ccc(Cl)cc1)C1=Cc2cc(Cl)ccc2OC1,-1.36
14,Cc1ccc(S(=O)(=O)N2CCC(C(=O)NCCCN3CCCCCC3)CC2)cc1,-19.7
15,CCOC(=O)C1=NN(C(=O)Nc2ccc(OC)cc2)C2C(=O)N(c3cccc(C(F)(F)F)c3)C(=O)C12 (stereo not drawn),-0.712
16,CC(C)C(=O)NNC(=O)c1csc(CS(=O)(=O)c2ccc(Cl)cc2)n1,-1.62
17,CCCCn1c(=O)[nH]c2nc3cc(NC(C)=O)ccc3nc2c1=O,13.3
18,COc1cccc(C(=S)N2CCOCC2)c1OS(=O)(=O)c1ccc(Cl)cc1,3.26
19,Cc1cc(NC(=O)c2ccc(C#N)cc2)n(-c2ccccc2)n1,-8.03
20,COc1ccc(C2=NN(C(=O)CCCC(=O)O)C(c3cn(-c4ccccc4)nc3-c3ccccc3)C2)cc1 (stereo not drawn),-9.6
21,COC(=O)CSc1ncc(OC)c(OC)n1,1.27
22,CCC1/C(=N\O)CC(c2ccco2)NC1c1ccco1 (stereo not drawn),2.76

row,Structure (SMILES),"hERG current change (%, negative = inhibition) at 10uM [%]"
1,Cc1ccc(N(CC(O)CN2CCCCC2)S(=O)(=O)c2ccc(C)cc2)cc1 (stereo not drawn),13.8
2,COc1ccc(NC(=O)c2cnc(C)cn2)cc1-n1cnnn1,7.84
3,CC(=O)Nc1cccc(NC(=O)C(=O)NCC(c2ccco2)N2CCc3ccccc32)c1 (stereo not drawn),-8.78
4,CCn1c(CSCc2c(Cl)cccc2Cl)n[nH]c1=S,21.6
5,C[n+]1ccc(C(=O)Nc2ccccc2Cl)cc1.[I-],33.8
6,CC(=O)n1nc(-c2cccc(C)c2)nc1SCC(=O)Nc1ccccc1,-0.298
7,Nc1ccc(Br)cc1Br,14.2
8,Fc1cnc(N2CCOCC2)nc1NCc1ccccc1,10.6
9,CCCCCCCn1c(=O)c(C(=O)Nc2cnccn2)c(O)c2ccccc21,4.21
10,CCSc1cc(N2CCCC2)nc(-c2ccc(Cl)cc2)n1,22.8
11,S=C(NCc1ccccc1)NCc1ccc(Cl)cc1,12.6
12,CS(=O)(=O)N1CCC(Oc2ccccc2C(=O)NCCCc2cccnc2)CC1,-23.3
13,CC(=O)Oc1ccc(/C=C(\NC(=O)c2cccc(Br)c2)C(=O)Nc2ccc(C(=O)O)cc2)cc1,6.07
14,CC(C)(C)OC(=O)NC(CC(=O)OCc1ccccc1)C(=O)O (stereo not drawn),10.1
15,Cc1ccc(C(=O)Nc2ccncc2)c(C)c1,-0.621
16,CCCc1cc(C(=O)N/N=C/c2ccc(C)o2)c2ccccc2n1,-9.35
17,Cc1nn(CC(=O)NCCCN2CCC(Cc3ccccc3)CC2)c(=O)c2cc(-c3ccccc3)nn12,-77
18,CN1CCN(C(CNS(=O)(=O)c2ccc(Cl)cc2)c2cccnc2)CC1 (stereo not drawn),-55.6
19,CC(=O)Nc1ccc(S(=O)(=O)NCC(=O)NNC(=O)COc2ccccc2Cl)cc1,5.59
20,N#Cc1cnn2cc(CCN3CCOCC3)c(-c3ccc(F)cc3)nc12,-1.87
21,CN(C)CCN(C(=O)c1ccc(C(=O)c2ccccc2)cc1)c1nc2cc3c(cc2s1)OCCO3.Cl,-12.4
22,COc1ccc(N=Nc2nc3ccc(Br)cc3n2C)cc1,10.5

row,Structure (SMILES),"hERG current change (%, negative = inhibition) at 10uM [%]"
1,CN(C)CCN(CC1CCCN(Cc2ccccc2F)C1)C(=O)c1ccc(Cl)cc1 (stereo not drawn),-14
2,S=c1[nH]nc([C@@H]2C[C@H]2c2ccccc2)n1-c1ccccc1,4.34
3,COCCN(Cc1nc2ccccc2c(=O)[nH]1)C(=O)c1cccc(S(=O)(=O)N2CCCC2)c1,-16.3
4,CCOC(=O)C1=C(C)N(C)C(=O)NC1c1c(C)nn(-c2ccc(C)cc2)c1Cl (stereo not drawn),-13.8
5,CCOC(=O)C(=CNc1nc(-c2ccc3ccccc3c2)cs1)C(=O)OCC,16
6,C/C(=N\NC(=O)Cc1c[nH]c2ccccc12)c1ccc2ccccc2c1,15.8
7,CCOc1ccc2nc(NC(=O)C(CCSC)NS(=O)(=O)c3cccs3)sc2c1 (stereo not drawn),-3.06
8,CC(=O)N1c2ccc(S(=O)(=O)N3CCCC(C(=O)Nc4cccc(F)c4)C3)cc2CC1C (stereo not drawn),-22.7
9,NC(=O)[C@@H]1CCCN1Cc1c(C(=O)N2CCc3ccccc3C2)nc2ccc(Cl)cn12,-9.37
10,CC1(C)CC(=O)C=C(NCc2ccc(Cl)c(Cl)c2)C1,-14.2
11,Cc1nnc(SCC(=O)NCCc2ccccc2)s1,5.36
12,COC(=O)c1cn(CCC#N)nc1-c1ccc2ccccc2c1,-5.82
13,CCCCOc1ccc(C(=O)OCC(=O)Nc2cc(C)c(C)cc2[N+](=O)[O-])cc1,-8.54
14,NC(=O)C1=C[C@@H](C2CCCCC2)C[C@@H](OCCCCO)O1,4.05
15,O=C(N/N=C/c1ccc([N+](=O)[O-])o1)c1ccccc1-n1cccc1,-12
16,O=C(Cn1c(=O)n(CC2CCCO2)c(=O)c2ccccc21)N1CCN(c2ccccc2)CC1 (stereo not drawn),-21.8
17,COc1ccc(O)c(C(=O)c2coc(=N)c(C(=O)Nc3ccc(SC(F)F)cc3)c2)c1,-69.9
18,Cc1ccc(NC(=S)/N=C(\N)Nc2nc(C)c3ccccc3n2)cc1C,-10.6
19,O=C(O)CC(NC(=O)C12CC3CC(CC(C3)C1)C2)c1cccc([N+](=O)[O-])c1 (stereo not drawn),12.9
20,CCOC(=O)C1=C(c2ccccc2)NC(SCC(=O)NC2CCCCC2)=C(C#N)C1c1ccco1 (stereo not drawn),-1.35
21,O=C(CSc1nnc(CNC(=O)c2ccc(F)cc2)o1)Nc1ccc2c(c1)OCCO2,21.6
22,CCCC(=O)c1cc2ccccc2oc1=O,-8.47

row,Structure (SMILES),"hERG current change (%, negative = inhibition) at 10uM [%]"
1,CCC1CCCCN1C(=O)c1cc2cc(Br)ccc2oc1=O (stereo not drawn),-25.8
2,COC(=O)c1ccc(CSc2nnnn2-c2ccccc2)o1,-6.08
3,Cc1ccc(N(C)C(=O)N2CCN(S(=O)(=O)c3c(C)cc(C)cc3C)CC2)cc1,-31.8
4,CN(C)C(=O)Oc1ccc(OC(=O)N(C)C)cc1,2.39
5,CCC(=O)NC(=S)N1CCN(c2ccc([N+](=O)[O-])cc2Cl)CC1,-26.4
6,COc1cc(N2C(=O)NC3CC2(C)Oc2ccccc23)cc(OC)c1OC (stereo not drawn),18.3
7,CC(=O)c1cccc(NC(=S)N2CCCC2)c1,9.57
8,COc1cccc2cc(C(=O)CC3(O)C(=O)N(Cc4ccccc4)c4ccccc43)c(=O)oc12 (stereo not drawn),18.8
9,CCCSc1ncnc2c1oc1ccccc12,-5.24
10,CS(=O)(=O)N(CC(=O)N/N=C/c1cccs1)c1cccc(Cl)c1Cl,-22.3
11,COc1ccc(-c2nnc(NC(=O)CS(=O)(=O)c3ccc(F)cc3)o2)c(OC)c1,5.09
12,Cc1ccc(CNC(=O)CN(CCc2ccccc2)S(C)(=O)=O)cc1,-10.9
13,CCC1(c2ccccc2)NC(=O)N(CC(=O)Nc2ccccc2C(=O)N2CCCCC2)C1=O (stereo not drawn),-0.337
14,S=C(NCc1ccc(Cl)cc1)Nc1ccccc1,-20.8
15,Cc1sc(NC(=O)CN(Cc2ccccc2)C(=O)C2CC2)c(C(N)=O)c1C,30.8
16,CC1=C(C(=O)OC2CCCCC2)C(c2cccnc2)n2ncnc2N1 (stereo not drawn),6.27
17,Cc1ccc(N2CCN(S(=O)(=O)N3CCCCC3)CC2)c(C)c1,13
18,C/C=C/c1ccc(OCCCCN2CCC(C)CC2)c(OC)c1,-68.1
19,COc1cccc(C2Nc3ccccc3NC3=C2C(=O)CC(C)(C)C3)c1OC (stereo not drawn),9.83
20,Cc1cc(NC(=O)c2ccc3nc(C)sc3c2)no1,-1.41
21,O=C(CC1C(=O)NCCN1Cc1cccc(Oc2ccccc2)c1)NCCc1cnccn1 (stereo not drawn),14.8
